Sequences and labels used below:
B1: LINE1-full (parent)
chain: UACGUAGGUGGUUUUCCCCUGAUAGUGCUAAGGGGGCCUGGAAGUUUGGACUGGGCAGAGCUCAACACAGCGUGGCAAAGUGGCUGUGGCUAGACUGCCUCUCUGGAUUCCUCGUCACUCAGCAGGGCAUCUCUGAGAGAAAUGCC

The source gives no read counts; variants with many changes may rest on few reads.

Variants of B1 are the subject of this data set. The experiment in a line: self-cleavage, relative activity (ratio to wild type); higher = more cleavage; in vitro, sequencing; the parent is a self-cleaving ribozyme.
Consider U47G A94G A136G, for which the self-cleavage stood at 0.21.

Regarding G48U A59G A107G, the self-cleavage is 0.33.

For A50U A77G U108A, the self-cleavage was determined as 1.62.

Consider G54A A78G U85A, for which the self-cleavage is 0.03.

As for U52A A77G C146U, the self-cleavage turned out to be 2.42.

As for A50U G80U U104C U130C, the self-cleavage is 1.53.

Consider C51A A94U U100A U102C, for which the self-cleavage came out at 0.53.

For C51A A65U U91C, the self-cleavage was 0.14.

Regarding U52A U96A U115C, the self-cleavage is 0.1.

As to G48U U96A U100C, the self-cleavage amounted to 0.07.

Regarding A50G U112C U115A, the self-cleavage is 1.57.

A50U A79G U130C: the self-cleavage came out at 0.89.

Regarding U52C C61U U62C U132C, the self-cleavage stood at 0.

Consider A50G A59U A142G, for which the self-cleavage was 0.89.

As for A50U A79G A121C A142G, the self-cleavage turned out to be 1.38.

For the variant U52A U115C A124G A138G, the self-cleavage came out at 1.31.

Regarding A50G U62C A77U, the self-cleavage worked out at 0.13.

Regarding G53A G80A U85C G88A C128U U134G, the self-cleavage stood at 0.04.

For the variant U52G A65G U73A G122C, the self-cleavage amounted to 0.

A50G A67U U143C: the self-cleavage is 0.02.

In the case of G55U A65G U102A, the self-cleavage was determined as 0.02.

With C56G C68U U143A, the self-cleavage worked out at 0.03.

For the variant A50G U62C U73A A78U, the self-cleavage is 0.02.

For the variant A50U A79U U109G U134C U143G, the self-cleavage worked out at 0.79.

With A50G G89A A140U, the self-cleavage came out at 0.02.

Turning to C56A U87C U143A, the self-cleavage stood at 0.02.

A50G U62A C99U U112C: the self-cleavage worked out at 0.05.

Regarding U52A A79G G125U, the self-cleavage turned out to be 1.16.

In the case of G54U A65G U87C, the self-cleavage worked out at 0.02.

With G49A A57G A129G, the self-cleavage is 0.38.

On to A50G G135A U143A, for which the self-cleavage was 0.59.

Turning to A50G U96A C113U, the self-cleavage came out at 0.

Regarding U52C C71U U81G, the self-cleavage came to 0.34.

Take U52A A141G U143A: the self-cleavage came to 1.63.

Regarding U52A U112C U132C A142G, the self-cleavage worked out at 1.13.

On to A50G A121U A138G, for which the self-cleavage was found to be 0.61.

Regarding A57G A64U G126C, the self-cleavage was 0.31.

Turning to A57C C61U A78G A79G A140U, the self-cleavage stood at 0.13.

Consider A50C C68A U81A A124U U130G, for which the self-cleavage came to 0.

Turning to A50G A67G A79C G114A A124U A138G, the self-cleavage was 0.6.

Turning to G55A A57G U85A U132C, the self-cleavage stood at 0.

G48U U87A A107G: the self-cleavage stood at 0.04.

For A50G A140G A141G, the self-cleavage amounted to 0.92.

A57G A65C A69G: the self-cleavage was found to be 0.

In the case of G48C A69U U143A, the self-cleavage stood at 0.11.

For the variant G53A A64G A124G, the self-cleavage turned out to be 0.17.

For A50C U100G U130C, the self-cleavage came out at 0.

In the case of U52C A67G G74A A117U, the self-cleavage turned out to be 0.25.

As to G54C U91C U130C, the self-cleavage was found to be 0.6.

For U52A U73C A94G, the self-cleavage turned out to be 0.23.

For A50U U115A A136G, the self-cleavage worked out at 1.39.

Take A50U A79G G86A: the self-cleavage stood at 0.04.

Turning to G53A C66U A79G, the self-cleavage came to 0.05.

Take U52A G53A U85C: the self-cleavage is 0.21.

Regarding C56G A78G U112A, the self-cleavage stood at 0.04.

Take U52C A78G U108A: the self-cleavage is 0.77.

In the case of U52A A64U U119A A141G, the self-cleavage came to 0.58.

For the variant G49A A59G U102C U115C, the self-cleavage worked out at 0.07.

Turning to A50G A69G U119C, the self-cleavage stood at 0.

In the case of A50G A107G A129U, the self-cleavage was found to be 0.92.

Regarding U52C A59G A121G, the self-cleavage was 0.

For the variant A50G G53A U62C, the self-cleavage worked out at 0.04.

With A57G A59U A77U, the self-cleavage was found to be 0.38.

Regarding C51U C71U U112C U132C, the self-cleavage was determined as 0.59.

Regarding U52G U73C C113U, the self-cleavage was 1.91.

Turning to G49U C66U U87C, the self-cleavage worked out at 0.01.

As for C56U U85C U87C, the self-cleavage was determined as 0.05.

As to G54A U73A U87C G125A U132C, the self-cleavage stood at 0.

In the case of A50G U85A U100A A142G, the self-cleavage is 0.03.

Consider A50G U62A A65G U96A, for which the self-cleavage came to 0.06.

Turning to U52A U87C A141G, the self-cleavage amounted to 0.28.

U52C U119A C145A: the self-cleavage came out at 1.93.

For U52A C128A U143C, the self-cleavage was found to be 1.67.

Regarding U52A A59G U115C, the self-cleavage amounted to 0.97.

For G53A U62C U115C, the self-cleavage was 0.05.

Turning to U52A A94U A136G, the self-cleavage came to 0.46.

Consider A50G U62C C118U A121G, for which the self-cleavage amounted to 0.09.

Take U52A U102A U119A: the self-cleavage was determined as 1.41.

As for U47G A69G C76U, the self-cleavage is 0.53.

For the variant U52C U73C U104C, the self-cleavage is 0.

On to G55U A67C U96C, for which the self-cleavage was determined as 0.05.

For the variant A50G A65G U119C, the self-cleavage came to 0.

Regarding A50U A77G U102A A140G, the self-cleavage amounted to 1.92.

Turning to U52A A67U A77G U96A, the self-cleavage turned out to be 0.05.

Regarding A50G G72A A124U A141G, the self-cleavage was 0.97.

In the case of A50U G74U U85C U132A, the self-cleavage was 0.17.

For A50U U87C A117U, the self-cleavage stood at 0.13.

U52A U102C U119C A129G: the self-cleavage was found to be 0.

Turning to U47G A77G U96G, the self-cleavage was 0.32.

Turning to A57G A69C U132C, the self-cleavage is 0.

U52C A57U A141G: the self-cleavage came out at 0.03.

For the variant G53U U85C A140G, the self-cleavage stood at 0.07.

Take U52C A64U A142G: the self-cleavage was 0.5.

Consider U52A A57G C113U U115G A141G, for which the self-cleavage came out at 1.14.

On to U47G A64G A78G, for which the self-cleavage worked out at 0.11.

As to C51U A78G A92G A94G A124G, the self-cleavage turned out to be 0.

Consider U52C A65U U108C A129U, for which the self-cleavage worked out at 0.23.

On to A50G A59U U96A U100A C111U, for which the self-cleavage stood at 0.03.

Consider U52A A79G U119C C145A, for which the self-cleavage came to 0.22.

As to A50U U109C A121U, the self-cleavage was 0.73.

For the variant G55U A136G A141G, the self-cleavage is 0.41.

U52A U62C A94C C133A: the self-cleavage came to 0.

As for U52G C84G A107U U115C U130C, the self-cleavage is 0.61.

A50G C113U A138G: the self-cleavage was 1.06.

For U52A A64C U104A A138G A142G, the self-cleavage is 0.5.

Turning to G55U A67U U96C, the self-cleavage stood at 0.03.

Take G48A U132C U143C: the self-cleavage worked out at 0.

A50G A65U U112C A142G: the self-cleavage was found to be 0.26.

Consider A50G U62A U73G U108C, for which the self-cleavage stood at 0.11.

G55A A64U G75C U112C: the self-cleavage is 0.04.

For G55A U109C C116U, the self-cleavage came out at 0.1.

For G54A U87C U134C A142G, the self-cleavage was found to be 0.24.

With U52A A57G A78G, the self-cleavage came out at 0.

As for G48A U96C U143C, the self-cleavage is 0.08.

Take U52C U100C A124U: the self-cleavage was 0.68.

A50G U85A A141G: the self-cleavage stood at 0.1.

As for G54U A64G A67C A117G, the self-cleavage is 0.

Turning to U47G A65U A136G, the self-cleavage worked out at 0.

For U47G A69G A129G, the self-cleavage was 0.74.

In the case of C56U U115C U134A, the self-cleavage came to 0.22.

On to A50G A65U A117G U132C, for which the self-cleavage amounted to 0.92.

U52A U85C A94G: the self-cleavage turned out to be 0.1.

Regarding G48A A69G U91C, the self-cleavage is 0.15.

G49A A69U U119C: the self-cleavage came to 0.06.

Turning to C51U A65U A77G U85C, the self-cleavage came out at 0.19.

For U52C G58U A67U, the self-cleavage stood at 0.04.

For the variant G54A U102C U109C A136U, the self-cleavage came to 0.21.

On to A50G A57U G80C, for which the self-cleavage was determined as 0.18.

As for U52C A57G U87A G88U, the self-cleavage was 0.04.

Regarding C51A A140G A142G, the self-cleavage turned out to be 1.64.

For the variant A50U A67G U96C A121U, the self-cleavage came to 0.

As to U52A A64G U115C C128U, the self-cleavage was determined as 0.17.

Take G53U U62A U143A: the self-cleavage stood at 0.02.

As for G54A U130A A140G, the self-cleavage came out at 0.58.

Turning to G49A U87C C111U, the self-cleavage came out at 0.09.

Take A50G A65G U91C: the self-cleavage was found to be 0.

As for G54A A79G A136U, the self-cleavage was 0.6.

A50U A59U G105U U112G U115C A129G: the self-cleavage came to 1.23.

Take U52C U130A A138G: the self-cleavage turned out to be 0.89.

A57C A78G A79G U143A: the self-cleavage stood at 0.

As to U52A A65G A121G, the self-cleavage is 0.

G53A A79G U130C: the self-cleavage came out at 2.21.

Consider G54A U85A G125A A129G, for which the self-cleavage worked out at 0.05.

For G48U U52G G55A A69U U100C, the self-cleavage worked out at 0.1.

As for A50G C68U A69U, the self-cleavage amounted to 0.04.

Turning to A50G G88A U108C A141G, the self-cleavage is 0.

In the case of A50G C56U A142G, the self-cleavage was found to be 0.1.

For G48A U52A U115C, the self-cleavage is 0.88.

Turning to G49A U100C A141G, the self-cleavage worked out at 1.24.

Turning to A50U C63U G106C, the self-cleavage was found to be 0.13.

Turning to U52A A94G U130C, the self-cleavage is 0.34.

With C56U A59G A67G A117G, the self-cleavage worked out at 0.11.

With U52A A69G U85A U130C, the self-cleavage is 0.04.

As for U52C C68U A124C A129G A136G, the self-cleavage was 0.2.

A50G C103A A141G: the self-cleavage came to 0.92.

For the variant A50G A77U G82U A94G, the self-cleavage was found to be 0.12.

Take G54A A79G U112A C113U: the self-cleavage was determined as 0.83.

Turning to U52C U85C A92G, the self-cleavage is 0.

On to U52C U62C G105U A124G A141U A142G, for which the self-cleavage was 0.06.

Consider G54A C103A A140G A142G, for which the self-cleavage is 0.23.

For A50G G114A U115C, the self-cleavage stood at 1.07.

Take C56U A129G U130C: the self-cleavage was found to be 0.34.

C56U U62G U100A: the self-cleavage came to 0.07.

G53A U85C U87A: the self-cleavage stood at 0.05.

As to G54A U62C A69G A107G, the self-cleavage was determined as 0.05.

Consider U52C A67G A141G, for which the self-cleavage amounted to 0.

In the case of A50G A77G A124G A129G, the self-cleavage was 2.3.

The values above are taken from the RNAGym collection of RNA variant scans (doi:10.7554/elife.90254).
